Patent publication US20250144178A1, “PHARMACEUTICAL COMPOSITION FOR CANCER TREATMENT COMPRISING FUSION PROTEIN INCLUDING IL-12 AND ANTI-FAP ANTIBODY AND ANTICANCER AGENT” (KANAPH THERAPEUTICS INC., priority 2022, published 2025)

T1: recombinant human FAP (Homo sapiens, UniProt Q12884)
T1 sequence (Q12884 1-760): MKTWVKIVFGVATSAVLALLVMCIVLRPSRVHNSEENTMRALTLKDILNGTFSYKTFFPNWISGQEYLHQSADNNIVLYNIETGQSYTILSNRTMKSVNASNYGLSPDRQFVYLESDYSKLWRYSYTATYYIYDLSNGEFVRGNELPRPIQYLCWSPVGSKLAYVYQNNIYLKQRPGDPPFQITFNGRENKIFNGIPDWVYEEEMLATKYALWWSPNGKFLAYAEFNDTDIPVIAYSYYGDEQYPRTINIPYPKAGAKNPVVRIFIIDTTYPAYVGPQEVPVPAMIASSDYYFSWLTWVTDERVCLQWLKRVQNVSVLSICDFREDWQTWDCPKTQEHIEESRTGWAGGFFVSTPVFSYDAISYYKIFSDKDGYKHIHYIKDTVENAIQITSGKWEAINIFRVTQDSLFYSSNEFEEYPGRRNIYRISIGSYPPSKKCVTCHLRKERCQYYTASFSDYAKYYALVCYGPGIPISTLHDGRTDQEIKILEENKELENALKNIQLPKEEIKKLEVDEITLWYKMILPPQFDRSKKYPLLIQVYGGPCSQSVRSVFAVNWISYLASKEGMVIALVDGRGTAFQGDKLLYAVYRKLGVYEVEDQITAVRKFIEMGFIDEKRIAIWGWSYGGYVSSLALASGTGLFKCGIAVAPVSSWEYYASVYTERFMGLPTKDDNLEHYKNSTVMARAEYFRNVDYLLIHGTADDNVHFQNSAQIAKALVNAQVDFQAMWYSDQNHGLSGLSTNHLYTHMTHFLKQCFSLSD

B1: T1.08: K&H: anti-hu FAP/hu IL-12, hu IgG1 DANG (2 + 1, LC scFv) (seq1, seq3, seq9) (antibody)
heavy: QVQLVQSGAEVKKPGASVKVSCKTSRYTFTEYTIHWVRQAPGQRLEWIGGINPNNGIPNYNQKFKGRVTITVDTSASTAYMELSSLRSEDTAVYYCARRRIAYGYDEGHAMDYWGQGTLVTVSSASTKGPSVFPLAPSSKSTSGGTAALGCLVKDYFPEPVTVSWNSGALTSGVHTFPAVLQSSGLYSLSSVVTVPSSSLGTQTYICNVNHKPSNTKVDKKVEPKSCDKTHTCPPCPAPELLGGPSVFLFPPKPKDTLMISRTPEVTCVVVAVSHEDPEVKFNWYVDGVEVHNAKTKPREEQYGSTYRVVSVLTVLHQDWLNGKEYKCKVSNKALPAPIEKTISKAKGQPREPQVYTLPPSRDELTKNQVSLWCLVKGFYPSDIAVEWESNGQPENNYKTTPPVLDSDGSFFLYSKLTVDKSRWQQGNVFSCSVMHEALHNHYTQKSLSLSPGK
light: DIVMTQSPDSLAVSLGERATINCKSSQSLLYSRNQKNYLAWYQQKPGQPPKLLIFWASTRESGVPDRFSGSGFGTDFTLTISSLQAEDVAVYYCQQYFSYPLTFGQGTKVEIKRTVAAPSVFIFPPSDEQLKSGTASVVCLLNNFYPREAKVQWKVDNALQSGNSQESVTEQDSKDSTYSLSSTLTLSKADYEKHKVYACEVTHQGLSSPVTKSFNRGECGGGGSGGGGSGGGGSQVQLVQSGAEVKKPGASVKVSCKTSRYTFTEYTIHWVRQAPGQRLEWIGGINPNNGIPNYNQKFKGRVTITVDTSASTAYMELSSLRSEDTAVYYCARRRIAYGYDEGHAMDYWGQGTLVTVSSGGGGSGGGGSGGGGSGGGGSDIVMTQSPDSLAVSLGERATINCKSSQSLLYSRNQKNYLAWYQQKPGQPPKLLIFWASTRESGVPDRFSGSGFGTDFTLTISSLQAEDVAVYYCQQYFSYPLTFGQGTKVEIK
chain: IWELKKDVYVVELDWYPDAPGEMVVLTCDTPEEDGITWTLDQSSEVLGSGKTLTIQVKEFGDAGQYTCHKGGEVLSHSLLLLHKKEDGIWSTDILKDQKEPKNKTFLRCEAKNYSGRFTCWWLTTISTDLTFSVKSSRGSSDPQGVTCGAATLSAERVRGDNKEYEYSVECQEDSACPAAEESLPIEVMVDAVHKLKYENYTSSFFIRDIIKPDPPKNLQLKPLKNSRQVEVSWEYPDTWSTPHSYFSLTFCVQVQGKSKREKKDRVFTDKTSATVICRKNASISVRAQDRYYSSSWSEWASVPCSGGGGSGGGGSGGGGSRNLPVATPDPGMFPCLHHSQNLLRAVSNMLQKARQTLEFYPCTSEEIDHEDITKDKTSTVEACLPLELTKNESCLNSRETSFITNGSCLASRKTSFMMALCLSSIYEDLKMYQVEFKTMNAKLLMDPKRQIFLDQNMLAVIDELMQALNFNSETVPQKSSLEEPDFYKTKIKLCILLHAFRIRAVTIDRVMSYLNASGGGGSGGGGS[skipping human IgG1 Fc with changes]
B2: T1.09: K&H: anti-hu FAP/hu IL-12 mut2, hu IgG1 DANG (2 + 1, LC scFv) (seq1, seq5, seq9) (antibody)
heavy: QVQLVQSGAEVKKPGASVKVSCKTSRYTFTEYTIHWVRQAPGQRLEWIGGINPNNGIPNYNQKFKGRVTITVDTSASTAYMELSSLRSEDTAVYYCARRRIAYGYDEGHAMDYWGQGTLVTVSSASTKGPSVFPLAPSSKSTSGGTAALGCLVKDYFPEPVTVSWNSGALTSGVHTFPAVLQSSGLYSLSSVVTVPSSSLGTQTYICNVNHKPSNTKVDKKVEPKSCDKTHTCPPCPAPELLGGPSVFLFPPKPKDTLMISRTPEVTCVVVAVSHEDPEVKFNWYVDGVEVHNAKTKPREEQYGSTYRVVSVLTVLHQDWLNGKEYKCKVSNKALPAPIEKTISKAKGQPREPQVYTLPPSRDELTKNQVSLWCLVKGFYPSDIAVEWESNGQPENNYKTTPPVLDSDGSFFLYSKLTVDKSRWQQGNVFSCSVMHEALHNHYTQKSLSLSPGK
light: DIVMTQSPDSLAVSLGERATINCKSSQSLLYSRNQKNYLAWYQQKPGQPPKLLIFWASTRESGVPDRFSGSGFGTDFTLTISSLQAEDVAVYYCQQYFSYPLTFGQGTKVEIKRTVAAPSVFIFPPSDEQLKSGTASVVCLLNNFYPREAKVQWKVDNALQSGNSQESVTEQDSKDSTYSLSSTLTLSKADYEKHKVYACEVTHQGLSSPVTKSFNRGECGGGGSGGGGSGGGGSQVQLVQSGAEVKKPGASVKVSCKTSRYTFTEYTIHWVRQAPGQRLEWIGGINPNNGIPNYNQKFKGRVTITVDTSASTAYMELSSLRSEDTAVYYCARRRIAYGYDEGHAMDYWGQGTLVTVSSGGGGSGGGGSGGGGSGGGGSDIVMTQSPDSLAVSLGERATINCKSSQSLLYSRNQKNYLAWYQQKPGQPPKLLIFWASTRESGVPDRFSGSGFGTDFTLTISSLQAEDVAVYYCQQYFSYPLTFGQGTKVEIK
chain: IWELKKDVYVVELDWYPDAPGEMVVLTCDTPEEDGITWTLDQSSEVLGSGKTLTIQVKEFGDAGQYTCHKGGEVLSHSLLLLHKKEDGIWSTDILKDQKEPKNKTFLRCEAKNYSGRFTCWWLTTISTDLTFSVKSSRGSSDPQGVTCGAATLSAERVRGDNKEYEYSVECQEDSACPAAEESLPIEVMVDAVHKLKYENYTSSFFIRDIIKPDPPKNLQLKPLKNSRQVEVSWEYPDTWSTPHSYFSLTFCVQVQGASAREAADRVFTDKTSATVICRKNASISVRAQDRYYSSSWSEWASVPCSGGGGSGGGGSGGGGSRNLPVATPDPGMFPCLHHSQNLLRAVSNMLQKARQTLEFYPCTSEEIDHEDITKDKTSTVEACLPLELTKNESCLNSRETSFITNGSCLASRKTSFMMALCLSSIYEDLKMYQVEFKTMNAKLLMDPKRQIFLDQNMLAVIDELMQALNFNSETVPQKSSLEEPDFYKTKIKLCILLHAFRIRAVTIDRVMSYLNASGGGGSGGGGS[skipping human IgG1 Fc with changes]

Biological target: T1, recombinant human FAP
Assay: Surface plasmon resonance binding to recombinant human FAP
Details: SPR, 1:1 binding model, protein captured by anti-human IgG (Fc), analyte human FAP
Procedure: Specifically, the surface of the CM5 chip was activated with a 1:1 mixture of […] NHS (N-hydroxysuccinimide) and […] EDC (1-Ethyl-3-(3-dimethylaminopropyl) carbodiimide), and 25 μg/ml of anti-human IgG (Fc) antibody was immobilized for 400 seconds at a rate of 10 μl/min. The remaining active ester groups were blocked with 1 M ethanolamine. T1.01, T1.02 and T1.03 were diluted to 2 μg/ml and reacted on the CM5 chip immobilized with the anti-human IgG (Fc) antibody. The recombinant human FAP was diluted to 200 nM in 1×HBS-EP+buffer solution and diluted by serial dilution. The diluted recombinant human FAP was reacted at a rate of 30 μl/min. The association and dissociation times were 180 seconds and 400 seconds, respectively. After the dissociation, stabilization was performed for 60 seconds, and then a regeneration was performed for 30 seconds with a 10 mM glycine pH 1.5 solution at a rate of 30 μl/min.
Bindings of T1.04, T1.05, T1.06, T1.07, T1.08, T1.09, T1.10 and T1.11 to recombinant human […] were identified by surface plasmon resonance (SPR). The surface of the CM5 chip was activated with a 1:1 mixture of […] (N-hydroxysuccinimide) and […] (1-Ethyl-3-(3-dimethylaminopropyl) carbodiimide), and 25 μg/ml of anti-human IgG (Fc) antibody was immobilized for 400 seconds at a rate of 10 μl/min. The remaining active ester groups were blocked with 1 M ethanolamine.
Specifically, human proteins T1.04, T1.05, T1.06, T1.07, T1.08, T1.09, T1.10 and T1.11 were diluted to 1 μg/ml, 1 μg/ml, 1 μg/ml, 1 μg/ml, 0.5 μg/ml, 0.5 μg/ml, 0.5 μg/ml, and 1 μg/ml, respectively, and reacted on a CM5 chip immobilized with an anti-human IgG (Fc) antibody. The recombinant human FAP was diluted to 25 nM or 50 nM in 1×HBS-EP+buffer solution and diluted by serial dilution. The diluted recombinant human FAP was reacted at a rate of 30 μl/min. The association and dissociation times were 180 seconds and 400 seconds, respectively. After the dissociation, stabilization was performed for 60 seconds, and then a regeneration was performed for 30 seconds with a 10 mM glycine pH 1.5 solution at a rate of 30 μl/min.

Row | Molecule | ka | kd
1 | B1 | 446000 M⁻¹ s⁻¹ | 7.87e-05 s⁻¹
2 | B2 | 517000 M⁻¹ s⁻¹ | 0.000111 s⁻¹
